Experimental data from the RNAGym collection of RNA variant scans (doi:10.1093/nar/gkz1192).
The source gives no read counts; variants with many changes may rest on few reads.

B1: CPEB3 Ribozyme (parent)
chain: UAACAGGGGGCCACAGCAGAAGCGUUCACGUCGCAGCCCCUGUCAGAUUCUGGUGAAUCUGCGAAUUCUGCUGUAUAUCUC

Variants of: B1
Assay: self-cleavage, relative activity (ratio to wild type); higher = more cleavage; in vitro, sequencing
Summary of the method: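 After error-prone PCR and barcoding, CPEB3 ribozyme mutant libraries were transcribed with T7 RNA polymerase at 37°C for 5 hours, then given 15 min with DNase I before an EDTA stop, and they cleaved during both steps. Reverse transcription with template switching preceded Illumina sequencing. Relative activity divides a variant's cleaved/total read fraction by the unmutated ribozyme's. At least 5 reads were required per variant, and three batches were averaged.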
A5U C11U U31A C40U A65U gave a self-cleavage of 0.21. Variant A5U C11U U49C has a self-cleavage of 0.21. A5U C12A A15G C32A showed a self-cleavage of 0.2. With A5U C12A U26C U41A U43C U54C U76C the self-cleavage was 0.07. In the case of A5U C12A U54C C71U G73A, the self-cleavage is reported as 1.04. For A5U C12A U58A U72G, the self-cleavage was 0.39. A5U C12G U48C gave a self-cleavage of 0.49. Work on A5U C12U A15G U31C U48C U49C U51C yielded a self-cleavage of 0.07. A5U C12U A20G A35C U66C gave a self-cleavage of 0.25. Work on A5U C12U A20U U26C C40G U54C yielded a self-cleavage of 0.05. With A5U C12U A28G A57G the self-cleavage was 0.75. Work on A5U C12U A35U U78C yielded a self-cleavage of 0.7. Variant A5U C12U U25A A35G U67C U69C U72A has a self-cleavage of 0.05. Work on A5U C12U U48C U60C U69G yielded a self-cleavage of 0.14. With A5U C12U U54A G63C A65G U67C the self-cleavage was 0.32. A5U C14U A18G U72A U78A showed a self-cleavage of 0.69. Work on A5U C14U A20G yielded a self-cleavage of 0.57. In the case of A5U C14U G30A U43C U78C, the self-cleavage is reported as 0.06. Variant A5U C14U U54C U58A A64G has a self-cleavage of 0.34. For A5U C17A U26C U48C, the self-cleavage was 0.09. A5U C17A U43C showed a self-cleavage of 0.35. For A5U C17G A35U, the self-cleavage was 0.05. A5U C17G U26C C29U A57G gave a self-cleavage of 0.3. A5U C17G U60C U78C showed a self-cleavage of 0.22. Variant A5U C23A A45G G53A A65G has a self-cleavage of 0.1. Work on A5U C23A U31G A35U G36A U58C U72C yielded a self-cleavage of 0.08. With A5U C23A U41C U48C U49C the self-cleavage was 0.15. In the case of A5U C23U A28U A35G U51C A57G, the self-cleavage is reported as 0.71. A5U C23U C32A A45U showed a self-cleavage of 0.28. A5U C23U C32U C40U U54C U72C U74C gave a self-cleavage of 0.06. Work on A5U C23U U26A G33C U43A U60C yielded a self-cleavage of 0.13. With A5U C23U U60C the self-cleavage was 0.3. In the case of A5U C27U U78C U80A, the self-cleavage is reported as 0.14. For A5U C29A A35G U69C U74C, the self-cleavage was 0.74. A5U C32A C38G U69C gave a self-cleavage of 0.16. A5U C32U U60C U76C U80C gave a self-cleavage of 0.22. With A5U C34U C40G A45U U49A the self-cleavage was 0.1. Variant A5U C38U U58A A64G U78C has a self-cleavage of 0.23. Variant A5U C40A A64G U66C C68U has a self-cleavage of 0.2. Variant A5U C40A U60A A75U has a self-cleavage of 0.06. With A5U C40U A47U U58C U80C the self-cleavage was 0.33. With A5U C50U G63A U80A the self-cleavage was 1.1. Variant A5U C68U U76C has a self-cleavage of 1.06. A5U G6A A13G C32U U51C A56U A75U showed a self-cleavage of 0.04. A5U G6A A15U A18G A35U U74C showed a self-cleavage of 0.09. A5U G6A A64G U66C U78C gave a self-cleavage of 0.44. For A5U G6A G10A A15G, the self-cleavage was 0.41. Variant A5U G6A G19U C27A C38A has a self-cleavage of 0.14. A5U G6A U43A U54C U80A gave a self-cleavage of 0.56. A5U G6A U49C U51C G52U U67A showed a self-cleavage of 0.08. Variant A5U G6A U72C A77U has a self-cleavage of 0.52. Variant A5U G6U U26C C29U U51A has a self-cleavage of 0. A5U G6U U31C C37U U72A A77G showed a self-cleavage of 0.07. Variant A5U G6U U41A has a self-cleavage of 0.39. Variant A5U G7A A15G has a self-cleavage of 0.4. In the case of A5U G7A A18U U26C U43C A45G U54C, the self-cleavage is reported as 0.04. In the case of A5U G7A A57G, the self-cleavage is reported as 0.14. For A5U G7A G10C A18G U43C, the self-cleavage was 0.04. Variant A5U G7A U25A A28U U51A has a self-cleavage of 0.28. For A5U G7A U26C A45G, the self-cleavage was 0.25. A5U G7A U41A U66A showed a self-cleavage of 0.06. Variant A5U G7A U43A A57G A64U has a self-cleavage of 0.06. A5U G7C A47U G70C gave a self-cleavage of 0.04. For A5U G7C C17G U26A, the self-cleavage was 0.07. For A5U G7C G10A A13G A18U, the self-cleavage was 0.56. Variant A5U G7C G33A U43C C79U has a self-cleavage of 0.03. Variant A5U G8A C11U C29U U41C U49A U67C has a self-cleavage of 0.13. Variant A5U G8A U25C A28G U54C A75U has a self-cleavage of 0.04. A5U G8A U25C G36C C38U A45U U51G showed a self-cleavage of 0.04. Variant A5U G8A U25C U48A U60A has a self-cleavage of 0.07. Work on A5U G8C A15G C27A A64G yielded a self-cleavage of 0. Variant A5U G8C U25A U26A U51G has a self-cleavage of 0.4. A5U G8U A18G U49A showed a self-cleavage of 0.21. A5U G8U A21G U25C U51C A56U showed a self-cleavage of 0.15. Variant A5U G8U U25C C32U has a self-cleavage of 0.24. Work on A5U G9A A13G U41A U60A A65G yielded a self-cleavage of 0.07. With A5U G9A A15G A47G U54G the self-cleavage was 0.46. In the case of A5U G9A A20G U25C A45U C59A U72A, the self-cleavage is reported as 0.04. For A5U G9A A20G U67C U72C, the self-cleavage was 0.26. With A5U G9A A57G U60A U66C the self-cleavage was 0.14. For A5U G9A A75G, the self-cleavage was 0.47. With A5U G9A C38U U69A U72A the self-cleavage was 0.08. With A5U G9A U26C A45G G52A U67C U72C the self-cleavage was 0.06. For A5U G9A U74A, the self-cleavage was 0.51. Work on A5U G9C A13G A28G yielded a self-cleavage of 0.34. Variant A5U G9U A20C U25C A45G has a self-cleavage of 0.11. A5U G9U A35U A57U C71U gave a self-cleavage of 0.12. Variant A5U G9U A56U U67A U74A has a self-cleavage of 0.31. In the case of A5U G9U C11G A45G, the self-cleavage is reported as 0.29. A5U G9U U31C gave a self-cleavage of 0.08. A5U G10A A13G A35G C38G U67C showed a self-cleavage of 0.14. Work on A5U G10A A18G C38U C40U A64G U67C yielded a self-cleavage of 0.03. In the case of A5U G10A G19A, the self-cleavage is reported as 0.39. With A5U G10A G24A C32U A57G A65G U67A the self-cleavage was 0.04. A5U G10A U49A U58C A64U gave a self-cleavage of 0.08. Work on A5U G10C G52A G70U yielded a self-cleavage of 0.06. With A5U G10U A18C G36A U80A the self-cleavage was 0.06. A5U G10U A18U A20U U25C U67A C71G gave a self-cleavage of 0.03. Work on A5U G10U C14U A20U yielded a self-cleavage of 0.06. Work on A5U G10U C17U G30A U51A U69G yielded a self-cleavage of 0.08. Work on A5U G10U U41C A56G G63U yielded a self-cleavage of 0.35. For A5U G19A C23U U51C A56G U67C U69A, the self-cleavage was 0.06. Work on A5U G19A U48C yielded a self-cleavage of 0.43. A5U G19U A28C U67C gave a self-cleavage of 0.31. In the case of A5U G19U G30A A35U U41A A47U, the self-cleavage is reported as 0.25. A5U G19U U25C A56G A57G A77G U80A showed a self-cleavage of 0.06. A5U G24A C71U U80C gave a self-cleavage of 0.25. Variant A5U G24A U25C A57G U58C has a self-cleavage of 0.31. Work on A5U G24U G30A A45G yielded a self-cleavage of 0.26. For A5U G24U U26C A28G C37G U43C U69A, the self-cleavage was 0.05. Work on A5U G30A U41A U74G yielded a self-cleavage of 0.16. For A5U G30A U41G U69A, the self-cleavage was 0.09. A5U G33A U43C A45U U69C A75U showed a self-cleavage of 0.14. For A5U G33A U48C A64G, the self-cleavage was 0.18. Work on A5U G36A U58C U69A yielded a self-cleavage of 0.18. A5U G42C U66C U78C showed a self-cleavage of 0.17. Work on A5U G46U U48C yielded a self-cleavage of 0.46. A5U G52A U66C showed a self-cleavage of 0.36. A5U G53C U67C gave a self-cleavage of 0.36. A5U G63A A77G showed a self-cleavage of 1.03. A5U G70C U78C showed a self-cleavage of 0.25. In the case of A5U U25A A28G A57U, the self-cleavage is reported as 0.06. With A5U U25A C29U G42U U48A A56U G70U the self-cleavage was 0. A5U U25A U26C C29U showed a self-cleavage of 0.21. For A5U U25C A28G C50U G53A U72A, the self-cleavage was 0.17. In the case of A5U U25C A28U, the self-cleavage is reported as 0.22. A5U U25C A35C G42A A47G U49C showed a self-cleavage of 0.08. With A5U U25C A35G A57G U66C U80C the self-cleavage was 0.14. A5U U25C A35G C37U U41C gave a self-cleavage of 0.41. In the case of A5U U25C A45C, the self-cleavage is reported as 0.12. With A5U U25C A45G U66C U67C the self-cleavage was 0.26. In the case of A5U U25C C27A A56G U69A A75G U80A, the self-cleavage is reported as 0.12. A5U U25C C34U A47G showed a self-cleavage of 0.14. For A5U U25C G30A U48C U58A A65G, the self-cleavage was 0.06. Variant A5U U25C G30A U58C A64G U78A has a self-cleavage of 0.18. For A5U U25C G63U U72C, the self-cleavage was 0.17. In the case of A5U U25C U26C U51A U58A U76A, the self-cleavage is reported as 0.21. In the case of A5U U25C U31C, the self-cleavage is reported as 0.25. In the case of A5U U25C U41C A64G, the self-cleavage is reported as 0.12. Variant A5U U25C U60A has a self-cleavage of 0. In the case of A5U U25C U69C C79A, the self-cleavage is reported as 0.23. For A5U U25C U72A, the self-cleavage was 0.16. With A5U U25C U72C U80A the self-cleavage was 0.37. A5U U26A A28G A47G U72C showed a self-cleavage of 0.72. Variant A5U U26A A35C U54C A56U A65C has a self-cleavage of 0.09. A5U U26A A35G U54A U76A gave a self-cleavage of 1.21. In the case of A5U U26A A47G G70A A75G, the self-cleavage is reported as 0.47. A5U U26A C44U gave a self-cleavage of 0.85. With A5U U26A G30A U54A U76C the self-cleavage was 0.17. Variant A5U U26A U41A A56U U60A has a self-cleavage of 0.15. A5U U26A U48A gave a self-cleavage of 0.25. Work on A5U U26A U49C G70A U80C yielded a self-cleavage of 0.15. Variant A5U U26A U80A has a self-cleavage of 1.14. A5U U26C A35G U43A U49C U67C gave a self-cleavage of 0.09. In the case of A5U U26C A35U A47G, the self-cleavage is reported as 0.21. A5U U26C A45G A57C U72A U78C showed a self-cleavage of 0.09. Work on A5U U26C A56C A65C yielded a self-cleavage of 0.19. Work on A5U U26C C27G U72C yielded a self-cleavage of 0.23. Work on A5U U26C C40G U48C A65G yielded a self-cleavage of 0.22. A5U U26C G42C U49C showed a self-cleavage of 0.33. A5U U26C U41C U69G gave a self-cleavage of 0.44. With A5U U26C U43A U49C U58C U67C the self-cleavage was 0.07. Work on A5U U26C U51A U69C yielded a self-cleavage of 0.46. For A5U U26C U51C U67C U74C, the self-cleavage was 0.15. With A5U U26C U60A U76A the self-cleavage was 0.6. In the case of A5U U26C U60C U76C, the self-cleavage is reported as 0.34. With A5U U26C U76A the self-cleavage was 0.88.
